Results as given in PubChem BioAssay AID504832 (National Center for Advancing Translational Sciences (NCATS), 2011).
Screen size: about 310,000 compounds; about 18,000 (5.8%) were called active. This list was built around the results that the source calls inconclusive (neither active nor inactive); the mix of calls is not that of the screen. Calls come from the whole dose curve; as a rule, active = well fitted inhibition curve with a large enough effect; inconclusive = small, poorly fitted or top-dose-only effect, or another doubt; inactive = no such curve, though single readings can be large or run the other way. No potency is given beside an inconclusive call; the fits are too rough.

Test: Primary qHTS for delayed death inhibitors of the malarial parasite plastid, 48 hour incubation
Settings: P. falciparum luciferase growth in erythrocytes; series mostly up to 28.7 µM
Summary of the method: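 Growth was read as firefly luciferase luminescence after a 48 h, 37 C, 5% CO2 exposure of compounds to reporter-bearing P. falciparum cultures (0.1% parasitemia, 2% hematocrit final) in Albumax-supplemented RPMI 1640.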
Potency is the fitted concentration of half-maximal effect; tags give direction and shape of the fitted curve.

Which Potency does the source give for Cc1cc(C)c(OCC(=O)OCC(=O)NC2CCC(C)CC2)c(C)c1 (stereo not drawn) here?
Its Potency is “inactive”.

For C#CCOCCOCCOCCNc1nc(N2CCN(C(=O)CCCCCCCCCCNC(=O)[C@H](CO)n3cc(CCCCCN)nn3)CC2)nc(N2CCN(C(=O)CCCCCCCCCCNC(=O)[C@H](CCCN=C(N)N)n3cc(C[C@@H](C)CC)nn3)CC2)n1, which Potency is on record?
Its Potency is active: 3.29 µM.

With COc1ccc(CCn2c(=N)c(C(=O)NCc3ccco3)cc3c(=O)n4ccccc4nc32)cc1 as the compound, how does the Potency read?
Its Potency is active: 2.94 µM.

With CN(CC(=O)NCC1CCCCC1)CC(=O)Nc1ccccc1Br as the compound, how does the Potency read?
Its Potency is “inactive”.

Which Potency does the source give for COc1ccccc1OCCNCC(O)COc1cccc2[nH]c3ccccc3c12 (stereo not drawn) here?
The Potency was inconclusive [inhibitor, single point].

For CN1CCN(C(c2cccs2)c2nnnn2Cc2ccc(F)cc2)CC1 (stereo not drawn), which Potency is on record?
The Potency was “inactive”.

For NC(=O)c1cc2ccccc2o/c1=N\NC(=O)c1ccc(F)cc1, which Potency is on record?
The Potency was inconclusive [inhibitor, single point].

For COc1ccc(CN2C(=O)Cc3c2nc(N)c2c(N)nc(N4CCOCC4)c(C#N)c32)cc1, which Potency is on record?
Its Potency is inconclusive [inhibitor, partial curve].

Which Potency does the source give for Cc1c(C(=O)N2CCCCC2)sc(NC(=O)c2ccco2)c1C#N here?
Its Potency is “inactive”.

Which Potency does the source give for CCC(C)(C)C1CCc2[nH]nc(C(=O)NC(C)C)c2C1 (stereo not drawn) here?
Its Potency is inconclusive [inhibitor, single point].

For O=C(Nc1ccc2nc(N3CCOCC3)sc2c1)c1ccccc1, which Potency is on record?
Its Potency is inconclusive [inhibitor, single point].

Which Potency does the source give for CN1CCN(S(=O)(=O)c2cccc(S(=O)(=O)c3ccc(Cl)c(Cl)c3)c2)CC1 here?
Its Potency is inconclusive [inhibitor, full curve, poor fit].

With COc1ccc(C(CNC(=O)C(=O)Nc2ccc3c(c2)OCCO3)N2CCN(C)CC2)cc1 (stereo not drawn) as the compound, how does the Potency read?
Its Potency is inconclusive [inhibitor, partial curve, poor fit].

Which Potency does the source give for COc1ccc(NC(=O)CCCn2c(=O)c3sccc3n(Cc3ccccc3C)c2=O)cc1 here?
Its Potency is inconclusive [inhibitor, single point].

Which Potency does the source give for CN(C)S(=O)(=O)c1cc(NC(=O)CN2CCOCC2)ccc1Cl here?
Its Potency is inconclusive [inhibitor, full curve, poor fit].

For COc1ccc(C2CC(=O)Oc3c(C(CCN4CCN(c5ccccc5)CC4)c4ccc(N(C)C)cc4)c(OC)cc(OC)c32)cc1 (stereo not drawn), which Potency is on record?
Its Potency is active: 9.28 µM.

Which Potency does the source give for CCCC(=O)Nc1nc2ccc3nc(C)sc3c2s1 here?
The Potency was inconclusive [inhibitor, partial curve].

For C#CCOCCOCCOCCNc1nc(N2CCN(C(=O)[C@H]([C@@H](C)CC)n3cc([C@@H](N)CC(C)C)nn3)CC2)nc(N2CCN(C(=O)[C@H]([C@@H](C)CC)n3cc([C@@H](N)CC(C)C)nn3)CC2)n1, which Potency is on record?
Its Potency is active: 1.65 µM.

With Cc1cc(F)ccc1S(=O)(=O)N1CCCCC1CCNC(=O)C(=O)NCc1ccccn1 (stereo not drawn) as the compound, how does the Potency read?
Its Potency is inconclusive [inhibitor, single point].

Which Potency does the source give for COCCn1cnc2c1c(=O)n(CC(=O)NC(=O)NC(C)(C)C)c(=O)n2Cc1ccccc1 here?
The Potency was inconclusive [inhibitor, partial curve].

With COc1cc(/C=C2\SC(N)=NC2=O)ccc1OCC(=O)Nc1ccccc1C as the compound, how does the Potency read?
Its Potency is active: 5.86 µM.

For Cc1cccc(NC(=O)NCCc2ccc(Cl)cc2)c1, which Potency is on record?
The Potency was inconclusive [inhibitor, partial curve, poor fit].

With COc1cccc(NC(=O)N(CCCN2CCOCC2)C(C)c2cc3cccc(OC)c3o2)c1 (stereo not drawn) as the compound, how does the Potency read?
The Potency was inconclusive [inhibitor, single point].

For O=c1n(-c2ccccc2)c(=O)n2n1CCCC2, which Potency is on record?
Its Potency is inconclusive [inhibitor, single point].

With C[C@H](NC(=O)c1[nH]cnc1C(=O)Nc1ccccc1)c1ccccc1 as the compound, how does the Potency read?
The Potency was inconclusive [inhibitor, single point].

For Cc1cc(C(F)(F)F)n2nc(-c3cnn(C)c3C(F)(F)F)c(Cl)c2n1, which Potency is on record?
Its Potency is active: 3.29 µM.

For CCN1CCN(c2cc(C)c3cc(NC(=S)N(CC)CC)ccc3n2)CC1, which Potency is on record?
The Potency was active: 13.1 µM.

With CCCCOc1ccc(C(=O)NCC(=O)NCC2CCCO2)cc1 (stereo not drawn) as the compound, how does the Potency read?
The Potency was inconclusive [inhibitor, single point].

Which Potency does the source give for O=C(Nc1ccc(N2CCOCC2)cc1)C1CCCN(S(=O)(=O)c2ccccc2)C1 (stereo not drawn) here?
The Potency was inconclusive [inhibitor, single point].

Which Potency does the source give for COc1cccc2c(=O)n(CC(=O)NCCc3ccccc3)ccc12 here?
Its Potency is active: 1.85 µM.

For O=C(Nc1ccc2c(c1)OCCO2)c1cc2sccc2n1Cc1ccc(F)cc1, which Potency is on record?
The Potency was inconclusive [inhibitor, partial curve, poor fit].

Which Potency does the source give for COc1ccc(C(=O)NC2CC3CCCC(C2)N3Cc2ccccc2)c(OC)c1 (stereo not drawn) here?
Its Potency is “inactive”.

For CCOC(=O)C1=C(COc2ccccc2)NC(=O)NC1c1ccc(Cl)cc1 (stereo not drawn), which Potency is on record?
The Potency was inconclusive [inhibitor, partial curve, poor fit].

Which Potency does the source give for COc1ccc(N=C2SC(C(=O)Nc3ccc(C(=O)O)cc3)CC(=O)N2Cc2cccs2)cc1 (stereo not drawn) here?
Its Potency is inconclusive [inhibitor, partial curve].

Which Potency does the source give for CCN1C=C(C(=O)OC)C(c2cccc(OC)c2OC)C(C(=O)OC)=C1 here?
The Potency was inconclusive [inhibitor, partial curve, poor fit].

For O=C(CN(c1ccc2c(c1)OCCO2)S(=O)(=O)c1ccccc1)N1CCN(Cc2ccccc2)CC1, which Potency is on record?
Its Potency is inconclusive [inhibitor, partial curve, poor fit].

For OCC[N+]12CCC(CC1)C(C(O)(c1ccccc1)c1ccccc1)C2 (stereo not drawn), which Potency is on record?
Its Potency is inconclusive [inhibitor, partial curve].

With COc1cc(C(=O)NNC(=S)NC(=O)c2ccc(F)cc2)cc(OC)c1OC as the compound, how does the Potency read?
Its Potency is inconclusive [inhibitor, single point].

For Cc1ccccc1CN(C)C1CCN(C)CC1, which Potency is on record?
Its Potency is “inactive”.

For O=C(CSc1nc2ccccc2c(=O)n1CCCO)N1CCc2ccccc21, which Potency is on record?
The Potency was inconclusive [inhibitor, partial curve].

For CCOC(=O)c1[nH]c2ccc(OC)cc2c1NC(=O)CCN1CCN(Cc2ccccc2)CC1, which Potency is on record?
Its Potency is inconclusive [inhibitor, partial curve].

With CN(CC(=O)Nc1ccccc1C(F)(F)F)C(=O)C1CC1 as the compound, how does the Potency read?
Its Potency is “inactive”.

With O=C(NCCc1ccccc1C(F)(F)F)C1CCC(=O)N(C2CC2)C1 (stereo not drawn) as the compound, how does the Potency read?
The Potency was “inactive”.

Which Potency does the source give for CCN(CC)S(=O)(=O)c1ccc(NC(=O)C(C)N(c2ccccc2)S(C)(=O)=O)cc1 (stereo not drawn) here?
Its Potency is inconclusive [inhibitor, partial curve, poor fit].

Which Potency does the source give for CC1CCCC(NC(=O)COC(=O)c2cc(S(=O)(=O)N3CCOCC3)ccc2F)C1C (stereo not drawn) here?
Its Potency is “inactive”.

With CCc1cccc2c(C(=O)CN3C(=O)NC(C)(c4cccc5ccccc45)C3=O)c[nH]c12 (stereo not drawn) as the compound, how does the Potency read?
Its Potency is inconclusive [inhibitor, partial curve, poor fit].

For Cc1cc(C)c(C)c(S(=O)(=O)N2CCN(C(=O)c3cc(=O)[nH]c4ccccc34)CC2)c1C, which Potency is on record?
The Potency was inconclusive [inhibitor, single point].

Which Potency does the source give for Cc1ccc(NCc2nnc(SCC(=O)Nc3ncc(C)s3)n2CC2CCCO2)c(C)c1 (stereo not drawn) here?
The Potency was inconclusive [inhibitor, single point].

Which Potency does the source give for O=S(=O)(NCC(c1ccco1)N1CCc2ccccc2C1)c1ccc(Br)cc1 (stereo not drawn) here?
Its Potency is inconclusive [inhibitor, single point].

Which Potency does the source give for O=c1c(Cc2c(F)cccc2Cl)c(O)ccn1CCc1c[nH]c2ccccc12 here?
Its Potency is inconclusive [inhibitor, partial curve, poor fit].

With Cc1ccccc1Nc1nc(N)nc(COC(=O)[C@@H](NC(=O)c2ccccc2Cl)C(C)C)n1 as the compound, how does the Potency read?
The Potency was inconclusive [inhibitor, partial curve, poor fit].

With Cc1ccc(Nc2nc(N/N=C\c3ccc4c(c3)OCO4)nc(N3CCOCC3)n2)cc1 as the compound, how does the Potency read?
Its Potency is active: 10.4 µM.

For O=C(COc1ccc(C(=O)NCc2cccnc2)cc1)Nc1cccc(C(F)(F)F)c1, which Potency is on record?
The Potency was “inactive”.

Which Potency does the source give for CCOc1cc(NC(=O)C2CC2)c(OCC)cc1NC(=O)c1cccc(F)c1 here?
Its Potency is “inactive”.

With Cc1c(NC(=O)C(Sc2ccccc2)c2ccccc2)cccc1[N+](=O)[O-] (stereo not drawn) as the compound, how does the Potency read?
Its Potency is inconclusive [inhibitor, single point].

Which Potency does the source give for CN(C)c1ccnc2sc3c(SCc4ccc(Cl)cc4)ncnc3c12 here?
Its Potency is inconclusive [inhibitor, single point].

With CC(=O)c1c[nH]c2ccc(C)cc2c1=O as the compound, how does the Potency read?
Its Potency is active: 6.57 µM.

With C#CCOCCOCCOCCNc1nc(N2CCN(C(=O)[C@H]([C@@H](C)CC)n3cc([C@@H](N)CC(C)C)nn3)CC2)nc(N2CCN(C(=O)[C@H](Cc3ccc(O)cc3)n3cc([C@@H](N)CC(C)C)nn3)CC2)n1 as the compound, how does the Potency read?
The Potency was inconclusive [inhibitor, single point].

Which Potency does the source give for CC(C)(C)c1ccc(C(=O)NNC(=S)NC(=O)c2cccnc2)cc1 here?
Its Potency is active: 13.1 µM.

Which Potency does the source give for Cc1cc(NC(=O)COC(=O)c2c(C)nn(-c3ccccc3)c2C)no1 here?
The Potency was “inactive”.

Which Potency does the source give for Cn1ccnc1SCC(=O)Nc1cccc2ccccc12 here?
The Potency was “inactive”.

For Cc1ccc(S(=O)(=O)Nc2cc(C(=O)N3CCC4(CC3)OCCO4)ccc2N2CCCCC2)cc1, which Potency is on record?
Its Potency is inconclusive [inhibitor, partial curve, poor fit].

Which Potency does the source give for CC(C)Cn1c(C(C)C)nc([N+](=O)[O-])c1S(=O)(=O)c1ccc(F)cc1 here?
Its Potency is active: 10.4 µM.
